Measurements as given in ChEMBL document CHEMBL4888484, “Replenishing the malaria drug discovery pipeline: Screening and hit evaluation of the MMV Hit Generation Library 1 (HGL1) against asexual blood stage Plasmodium falciparum ,using a nano luciferase reporter read-out” (2022).
The whole screen tested about 150,000 compounds, of which about 540 (0.36%) showed an effect of 50% or more. Some of the results follow.

system: Plasmodium falciparum; assay: Primary screen in NF54 nanoGlo assay, in single point, at 2uM, 72h; a lower Z score goes with more inhibition; format: functional, Erythrocyte; conditions: timepoint 72 hour

| SMILES | % Inhibition [%] | Z score |
| --- | --- | --- |
| Cc1sc(CCNCc2cnn(C)c2)nc1-c1ccccc1 | -10 | 1.05 |
| Cc1nn(C(F)F)c(C)c1S(=O)(=O)NC1CCCCCC1 | 7 | -0.98 |
| Cc1cnccc1CN(C)c1cc([C@H]2CCOC2)nc(NCCO)n1 | -14 | 2.77 |
| COc1cccc(CN2CC3(CCN(c4ccncc4)CC3)CC2=O)c1 | -1 | 0.12 |
| O=C(CC[C@H]1CCCO1)N1CCC(c2ccsc2)CC1 | -3 | 0.64 |
| Cc1cc(CN2C(=O)N[C@]3(CCc4ccccc4C3)C2=O)nc(C)n1 | 1 | -0.14 |
| CCC(=O)c1cccc(S(=O)(=O)Nc2ncc(-c3cncc(F)c3)cn2)c1 | -12 | 2.33 |
| COc1ccc(NC(=O)C2(N(Cc3nc(-c4ccccc4)cs3)C(=O)Cn3nnc4ccccc43)CCCCC2)cc1 | 55 | -6.2 |
| CCc1nc(C)c([C@H]2CN(C)C[C@@H]2C(=O)NCc2oc3ccccc3c2C)[nH]1 | 0 | -0.06 |
| Cc1cc(C(=O)CN2CCC[C@H]2c2nncn2C)c(C)[nH]1 | 1 | -0.2 |
| CCCC(=O)N1CCC[C@@]2(CCC(=O)N(CCc3c[nH]cn3)C2)C1 | 12 | -1.57 |
| Cc1cc2c(cnc3ncnn32)c(=O)n1NC(=O)c1ccncc1 | -8 | 1.04 |
| C[C@H](NC(=O)c1nccn1C)c1ccc(S(C)(=O)=O)c(F)c1 | -5 | 0.89 |
| Cn1cc(-c2ccc3c(n2)N(C(=O)C2CC4C=CC2C4)CCC3)cn1 (centres undefined) | -11 | 2.09 |
| CCNC(=O)N1CCC(c2nnc(CN3CCCCCC3)n2C)CC1 | -9 | 1.19 |
| CC(=O)O[C@H](c1ccccc1)c1nc(C2CCN(C(=O)C(C)(C)C)CC2)no1 | -5 | 0.67 |
| CC(C)(NC(=O)c1cc(=O)[nH]c(C2CC2)n1)[C@H](O)C(F)(F)F | -30 | 3.22 |
| CN(CC(=O)N1CCN(c2ncccn2)CC1)C(=O)c1cccs1 | -4 | 0.69 |
| Cc1ccc(NC(=O)CN2C(=O)CCCc3cc(S(=O)(=O)N4CCC(C)CC4)ccc32)cc1C | -8 | 1.09 |
| O=S(=O)(Nc1ccc(C(F)(F)F)cn1)c1ccc2c(c1)OCCO2 | -18 | 2.35 |
| Cc1cccc(C[C@@H](CO)NC(=O)c2n[nH]c3ccccc3c2=O)c1 | -7 | 0.93 |

| SMILES | % Inhibition [%] | Z score |
| --- | --- | --- |
| Cc1noc(C)c1CCC(=O)N1CC2CC1C2NC(=O)C1(C)CCOCC1 (centres undefined) | 1 | -0.16 |
| CN(C(=O)[C@H](N)c1ccccc1)C1CC1 | 0 | -0.01 |
| COc1ccsc1S(=O)(=O)N1CCC2(CCN(C)CC2)C1 | -4 | 0.41 |
| C#CCCC1(CCC(=O)N2CCC3C(C2)C3(F)F)N=N1 (centres undefined) | 0 | 0.03 |
| O=C([C@H]1CCCN(c2nnc3c(Cl)cccn23)C1)N1CCN(c2ccccc2)CC1 | 11 | -1.25 |
| O=C(c1cccc(N2C(=O)CCS2(=O)=O)c1)N1CCN(Cc2ccccc2)CC1 | -8 | 1.02 |
| O=C(O)c1cc2cc(Cl)cc(-c3cc(NCCO)nc4[nH]ccc34)c2o1 | -7 | 1.24 |
| Cn1nccc1[C@@H]1CCCN1C(=O)Nc1cnn(-c2ccncc2)c1 | -2 | 0.31 |
| O=C(c1c(F)cccc1F)N1CC(n2nccn2)C1 | -8 | 0.95 |
| CS(=O)(=O)c1ccc(-c2c[nH]c([C@@H]3COCCN3C3CCC3)n2)cc1 | -5 | 0.77 |
| Nc1ncc(CN2CC[C@@]3(CCCN(C(=O)CCC4CCCC4)C3)C2)cn1 | 13 | -1.68 |
| CNc1ncccc1C(=O)N[C@H]1CC(=O)N(Cc2cccc(F)c2)C1 | -7 | 0.72 |
| FC(F)(F)c1ccnc(N2CCCOC3CCCC32)n1 (centres undefined) | -6 | 0.5 |
| Cc1ccc(C(=O)Nc2nc3ccccc3[nH]2)o1 | -11 | 1.82 |
| OC1CN(Cc2cc(Cl)ccc2OC[C@@H](O)CN2CCCCCC2)C1 | 9 | -1.34 |
| O=C(c1ccc(-c2nc3cccnc3n2C2CCCCC2)cc1)N1CCCCCC1 | -18 | 2.42 |
| Cc1c(Cl)cccc1NC(=O)c1nc(-n2ccnc2)ncc1Cl | -1 | 0.18 |
| CCc1ccccc1NC(=O)Cn1cc(-c2ccccc2)c2ncn(CCOC)c(=O)c21 | 3 | -0.37 |
| O=C1OC(N2C(=O)CC[C@H]2C(=O)Nc2cccc(C(F)(F)F)c2)c2ccccc21 (some centres undefined) | 5 | -0.6 |
| CCOC1CC(N(C)C(=O)OC(C)(C)C)C12CCCC2 (centres undefined) | 6 | -0.85 |
| Cc1nc(N2CCN(C(=O)c3cc(-c4ccccc4)[nH]n3)CC2)sc1C | -13 | 1.86 |

| SMILES | % Inhibition [%] | Z score |
| --- | --- | --- |
| Cc1c(NC(=O)N(C)Cc2nnc3n2CCOCC3)cnn1-c1ccccc1F | 1 | -0.1 |
| Cn1nc(C(=O)NCc2ccco2)c(=O)c2ccccc21 | -5 | 0.64 |
| O=C(Cc1cscn1)N1CC(c2ccccc2F)C1 | -8 | 0.84 |
| O=C(C[C@@H]1COC2(C1)CN(C(=O)c1ccc(OC(F)(F)F)cc1)C2)NCc1ccncc1 | -5 | 0.84 |
| Cn1nc(C(=O)NC2CCC(C(F)F)CC2)cc1C1CC1 (centres undefined) | 5 | -0.94 |
| CCN(C(=O)CCc1c[nH]c2ccccc12)C1CCOCC1 | -10 | 1.26 |
| C[C@@H](c1nncn1C)n1cc(-c2cccc(S(C)(=O)=O)c2)nn1 | 3 | -0.31 |
| Cn1nncc1S(=O)(=O)N(CCC#N)CC1CC1 | -5 | 1.03 |
| c1cc2cn[nH]c2cc1CNC[C@H]1CN(C2CC2)CCO1 | -7 | 0.94 |
| COc1cc(-c2cnnc(NCc3cc(C)no3)n2)cc(OC)c1OC | 14 | -1.85 |
| Cc1ccc(Cn2ccc(NC(=O)c3cc4nc(-c5ccco5)cc(C(F)(F)F)n4n3)n2)cc1 | -8 | 0.83 |
| Cc1ccc(-c2cn[nH]c2[C@H]2CCCN(C(=O)CCn3cccn3)C2)cc1 | -5 | 0.94 |
| O=C(Nc1cn[nH]c1)Nc1nc(-c2ccccc2Cl)ns1 | 1 | -0.09 |
| Cc1ccc(N2CC[C@H]3[C@H](CCC(=O)N3CCc3ccccc3)C2)nn1 | -6 | 1.13 |
| Cn1ncc(Br)c1S(=O)(=O)Nc1cc(C(F)(F)F)ccn1 | -32 | 3.73 |
| Cc1ccc(S(=O)(=O)NC[C@H]2O[C@@H](CC(=O)NCc3ccc(F)cc3)[C@H](O)[C@@H]2O)cc1 | 5 | -0.74 |
| O=C1Cc2cc(Nc3nccc(C(F)(F)F)n3)ccc2N1 | -21 | 2.57 |
| COCC1CN(C(=O)C(C)NC(=O)CC2CCCCC2)CC(C)O1 (centres undefined) | 3 | -0.74 |
| C[C@@](CO)(Cn1cnc2ccccc21)NS(=O)(=O)C1CC1 | -1 | 0.15 |
| COc1ccc(-c2cn3ccn(-c4ccc(Cl)cc4)c(=O)c3n2)cc1OC | -6 | 0.84 |
| COC[C@H]1CCCN1C[C@@H]1OC[C@H](NC(=O)c2ccc(C#N)cc2)[C@H]1O | 9 | -1.07 |

| SMILES | % Inhibition [%] | Z score |
| --- | --- | --- |
| O=C(c1ccc(Cl)s1)N1C[C@H]2CC[C@@H](C1)N(Cc1ccccn1)C2=O | -6 | 1.05 |
| CCN(CC)[C@@H](CNc1ncncn1)c1ccco1 | 6 | -1.13 |
| Cc1cc2n(n1)CCCN2C(=O)Nc1ccc(F)c(Cl)c1 | 4 | -0.66 |
| COc1nc(C)c(Br)cc1-c1noc(Cc2cnccc2C)n1 | 3 | -0.28 |
| Cc1cc(N2CCNC(=O)[C@@H]2C(C)C)nc(C2CC2)n1 | 3 | -0.49 |
| O=C1C2C3CCC(C3)C2C(=O)N1C1CCN(Cc2ccccc2)CC1 (centres undefined) | -11 | 1.21 |
| CC1(C)NC(=O)CC[C@@H]1NS(=O)(=O)c1ccc(OCC(F)F)cc1 | -5 | 0.7 |
| C=Cc1ccc(S(=O)(=O)N2CCC[C@H](N3CCCS3(=O)=O)C2)cc1 | 2 | -0.2 |
| Cc1c(C(=O)N2CCCC[C@@H]2COC(=O)N2CCOCC2)sc2nccn12 | -48 | 5.63 |
| O=C(NC(c1ccccc1)c1ccccc1)[C@@H]1CCCN1S(=O)(=O)c1ccc2c(c1)OCCO2 | -12 | 2.12 |
| CCCC[C@@H](COC)NC(=O)Cc1ccccc1O | -5 | 0.67 |
| CN(C)[C@@H](CNC(=O)NCc1cccs1)c1csc2ccccc12 | -7 | 0.75 |
| Cn1cnc(C(=O)N2CC3CCC3(Nc3nc(C4CCCCC4)ns3)C2)c1 (centres undefined) | -18 | 1.97 |
| CN(Cc1csc(-c2ccccc2)n1)C(=O)COC[C@H]1CCCO1 | -4 | 0.72 |
| O=C(N[C@@H]1CN(Cc2cc(F)ccc2F)C[C@H]1CO)c1cccnc1 | -10 | 1.78 |
| C[C@@H](CS(=O)(=O)Nc1ccn(CC(F)F)n1)c1ccccc1 | -7 | 0.8 |
| COc1cccc(CNC(=O)C2=Nc3ccccc3S(=O)(=O)N2)c1 | -14 | 1.58 |
| CN1CCN(c2nc(-c3ccc(F)cc3)c3c(N)n(-c4ccccc4)nc3n2)CC1 | -18 | 1.91 |
| CCOC[C@H]1CCCN1C(=O)c1cnc2ccccn2c1=O | -2 | 0.35 |
